Measured values from PubChem BioAssay AID360 (National Center for Advancing Translational Sciences (NCATS), 2006).
Out of some 48,000 compounds screened, about 550 (1.1%) were called active. Not shown: some 4% with an inconclusive outcome. Cut-off read from the data, not from the text of the source: active = potency below about 15 µM; inconclusive = mostly about 16 µM to 33 µM; inactive = weaker than that. The list shows a part of the results.

molecular target: Lysosomal acid glucosylceramidase (Homo sapiens) (UniProt P04062); experiment: Glucocerebrosidase; conditions: purified enzyme, resorufin glucoside fluorescence (screen aimed at inhibitors), 20 min;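 note: the screen sought inhibitors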
In short: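 Normal human glucocerebrosidase (0.2 nM final) was assayed with resorufin β-D-glucopyranoside (30 uM final) in 50mM citric acid/KH2PO4, 10mM sodium taurocholate, 0.01% tween-20, pH 5.9. Compounds were titrated; fluorescence (Ex 548, Em 600) read after 20 min at RT.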
Potency is the fitted concentration of half-maximal effect.

UniProt P04062, sequence (P04062 whole entry, looked up): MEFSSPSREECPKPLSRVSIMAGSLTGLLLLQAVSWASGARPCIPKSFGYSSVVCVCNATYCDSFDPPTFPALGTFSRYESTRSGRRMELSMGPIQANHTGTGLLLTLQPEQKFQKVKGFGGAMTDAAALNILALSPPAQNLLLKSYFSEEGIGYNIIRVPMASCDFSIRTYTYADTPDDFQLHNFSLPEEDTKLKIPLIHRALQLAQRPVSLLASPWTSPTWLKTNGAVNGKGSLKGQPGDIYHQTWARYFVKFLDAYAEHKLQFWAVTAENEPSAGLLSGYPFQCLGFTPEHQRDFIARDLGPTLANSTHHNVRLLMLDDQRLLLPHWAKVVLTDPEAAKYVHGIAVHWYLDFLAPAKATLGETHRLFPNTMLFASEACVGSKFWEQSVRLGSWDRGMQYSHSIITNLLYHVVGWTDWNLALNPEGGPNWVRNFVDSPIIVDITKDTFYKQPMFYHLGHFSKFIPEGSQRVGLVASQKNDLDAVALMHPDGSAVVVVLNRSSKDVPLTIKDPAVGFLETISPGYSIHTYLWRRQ

SMILES	Potency
COc1ccc(S(=O)(=O)N2CCN(CC(=O)Nc3cccc(F)c3)CC2)cc1	inactive: > 76.9 µM
Cc1cc(C)nc(SCc2nnc(SCC(=O)NCc3ccco3)n2-c2ccccc2)n1	inactive: > 76.9 µM
CCCCOc1ccc(-c2nnn(CC(=O)NCc3ccco3)n2)cc1	inactive: > 76.9 µM
CC(NC(=O)c1ccco1)C(c1cccs1)N1CCN(c2ccccc2F)CC1 (stereo unspecified)	inactive: > 76.9 µM
O=C1OCCC1N1C(=O)c2ccccc2S1(=O)=O (stereo unspecified)	inactive: > 76.9 µM
COc1ccc(-c2nnc(SCC(=O)Nc3cccc(Cl)c3)o2)cc1	inactive: > 76.9 µM
N#CCCn1ccc(NC(=O)c2ccc(Cl)cc2)n1	inactive: > 76.9 µM
CCOc1cc2[nH]c(=S)n(CCCC(=O)NCc3ccco3)c(=O)c2cc1OCC	inactive
CCOC(=O)C(NC(=O)CC(C)C)(Nc1cc(C)on1)C(F)(F)F (stereo unspecified)	inactive: > 76.9 µM
CC1(C)[N+]([O-])=C2C(=[N+]([O-])C1(C)C)c1ccccc1/C2=N\O	inactive: > 76.9 µM
O=C(C1CCN(Cc2cc(Cl)ccc2O)CC1)N1CCN(Cc2ccccc2)CC1	inactive: > 76.9 µM
COc1ccccc1NC(=O)COC(=O)c1ccc(S(=O)(=O)NCc2ccco2)cc1	inactive
CN(C(=O)CCN1C(=O)C(C)(C)Nc2ccccc21)c1ccccc1	inactive: > 76.9 µM
CCOC(=O)NC1(NC2CCCCC2)Oc2ccccc2O1	inactive: > 76.9 µM
CCOC(=O)CSc1nnc(Cc2cc(=O)[nH]c(=O)[nH]2)n1-c1cccc(OC)c1	inactive: > 76.9 µM
CCN(CC)C(=O)Cn1cnc2c1c(=O)n(C)c(=O)n2C	inactive: > 76.9 µM
Cn1nc(C(=O)N2CCN(S(=O)(=O)c3ccccc3)CC2)c2ccccc2c1=O	inactive: > 76.9 µM
O=C1Cc2ccccc2N1c1ccccc1	inactive: > 76.9 µM
O=C(Nc1ccc(SC(F)F)cc1)c1ccc2nccnc2c1	active: 12.4 µM
CCCCOCCCNC(=O)N[C@H](C(=O)OC)C(C)C	inactive: > 76.9 µM
Cc1noc(NS(=O)(=O)c2ccc(NC(=O)c3ccc(Br)o3)cc2)c1C	inactive: > 76.9 µM
O=C(CSc1nnc(-c2cccs2)n1-c1ccccc1)N1CCN(C(=O)c2ccco2)CC1	inactive: > 76.9 µM
CCCCCn1ccc(=N)cc1	inactive: > 76.9 µM

SMILES	Potency
Cc1cc(-c2nc3ccccc3o2)c2ccccc2n1	inactive
Cc1csc(=NC(=O)c2ccccc2)n1Cc1ccco1	inactive: > 76.9 µM
O=C(c1ccncc1)N1CCN(C(=O)c2ccco2)CC1	inactive: > 76.9 µM
CCn1c(NC(=O)c2ccco2)c(-c2ccccc2Cl)c(=O)c2ccccc21	inactive: > 76.9 µM
CCOC(=O)C1=C(N)n2c(s/c(=C/c3ccco3)c2=O)=C(C(=O)OC)C1c1ccco1 (stereo unspecified)	inactive: > 76.9 µM
CN(C)C(=O)CSc1nnc2sc3ccccc3n12	inactive: > 76.9 µM
COc1ccc(S(=O)(=O)NC(CC(=O)NCc2ccccc2OC)c2ccco2)cc1 (stereo unspecified)	inactive: > 76.9 µM
O=C(NCC1CCCO1)c1cc(-c2ccco2)nc2ccccc12 (stereo unspecified)	inactive: > 76.9 µM
O=C(Cn1cccc1C(=O)c1ccccc1)NCCN1CCCCCC1	inactive: > 76.9 µM
COc1ccc(-c2cc3ccccc3n2CC(O)CN2CCOCC2)cc1 (stereo unspecified)	inactive
O=C(CSc1nnc(SCC(=O)c2ccco2)s1)c1ccco1	inactive: > 76.9 µM
CS(=O)(=O)N(CC(=O)N1CCN(Cc2ccc3c(c2)OCO3)CC1)c1ccc2c(c1)OCO2	inactive: > 76.9 µM
COc1ccc(CCn2nnnc2C(c2ccc(Cl)cc2)N2CCN(C)CC2)cc1OC (stereo unspecified)	inactive: > 76.9 µM
CC(=O)Nc1cccc(-c2nc3ccccc3c(=O)o2)c1	inactive: > 76.9 µM
CN(C)CC(=O)Nc1cc(C(F)(F)F)ccc1Cl	inactive: > 76.9 µM
CCOc1ccc(CCNC(=O)c2cccnc2N2CCCC2)cc1OCC	inactive: > 76.9 µM
CCCC(=O)Nc1ccccc1-c1nnn(CC(=O)Nc2ccc(OCC)cc2)n1	inactive: > 76.9 µM
CC(C)CC(NC(=O)C1CCC(C)CC1)C(=O)Nc1cccnc1 (stereo unspecified)	inactive: > 76.9 µM
C=CCC(C#Cc1ccccc1)N(C)C (stereo unspecified)	inactive: > 76.9 µM
COc1cccc(CN(C(=O)c2cc3ccccc3oc2=O)C2CC2)c1	inactive: > 76.9 µM
Cc1cccc(-c2nnc(SCC#N)n2-c2cccc(Cl)c2)c1	inactive: > 76.9 µM
c1coc(-c2nnc(NC3=NCCC3)o2)c1	inactive: > 76.9 µM
COC(=O)c1cc(CSc2nnc(-c3ccccc3)c(-c3ccccc3)n2)oc1C	inactive: > 76.9 µM

SMILES	Potency
Cc1nc(=O)c(-c2ccccc2)c(C)n1-c1ccccc1O	inactive: > 76.9 µM
COc1ccccc1CNC(=O)C1CCN(Cc2nc(-c3cccc(Cl)c3)oc2C)CC1	inactive
COc1ccc(NC(=O)Cn2nnc(C(N)=O)c2N)c(OC)c1	inactive: > 76.9 µM
CC(C)CN(C(=O)COC(=O)c1cc2ccccc2oc1=O)C1CCS(=O)(=O)C1 (stereo unspecified)	inactive: > 76.9 µM
COc1ccc(C)cc1-n1c(-c2ccncc2)n[nH]c1=S	inactive: > 76.9 µM
CCCNC(=O)Nc1cc(C)on1	inactive: > 76.9 µM
Cn1c(SCC(=O)Nc2nc3c(s2)CCCC3)nnc1-c1ccccc1	inactive: > 76.9 µM
O=C(NCc1ccc(F)cc1)C1CCN(S(=O)(=O)N2CCC3(CC2)OCCO3)CC1	inactive: > 76.9 µM
COc1ccc(S(=O)(=O)c2ccc(OC)c(OC)c2)cc1OC	inactive: > 76.9 µM
CSc1nc(C)cc(OCC#N)n1	inactive: > 76.9 µM
COCC(=O)N(CCc1ccc(OC)c(OC)c1)Cc1nc2ccccc2c(=O)[nH]1	inactive: > 76.9 µM
CCCc1cc(=O)n2[nH]c(-c3cc(OC)c(OC)c(OC)c3)nc2n1	inactive: > 76.9 µM
O=C(CSc1nnc(Cc2ccccc2)o1)NCCN1C(=O)CSC1=O	inactive: > 76.9 µM
O=C(NCc1ccc2c(c1)OCO2)c1nn(-c2ccccc2)c(=O)c2ccccc12	inactive: > 76.9 µM
CCOc1ncccc1C(=O)OCc1cc(=O)oc2c(C)c(C)ccc12	inactive: > 76.9 µM
COc1cc(OC)cc(C(=O)NC2CC3CCC(C2)N3Cc2ccco2)c1 (stereo unspecified)	inactive: > 76.9 µM
Cc1noc(C)c1COC(=O)c1ccc2c(c1)S(=O)(=O)c1ccccc1C2=O	inactive: > 76.9 µM
Cc1ccccc1-n1c(=O)cc(N2CCC3(CC2)OCCO3)[nH]c1=O	inactive: > 76.9 µM
Cn1c(Cn2nnc3ccccc32)nnc1SCC(=O)Nc1ccc2c(c1)OCO2	inactive: > 76.9 µM
COc1ccc2sc(N3C(=O)C4CC=C(C)CC4C3=O)nc2c1 (stereo unspecified)	inactive: > 76.9 µM
COc1ccc(NC(=O)CNS(=O)(=O)c2cccs2)cc1	inactive: > 76.9 µM
COc1cc(OC)cc(C(=O)N2CCN(C(=O)c3ccc(OC)c(OC)c3)CC2)c1	inactive: > 76.9 µM
O=C(NC1CCN(C(=O)Nc2cccc(F)c2)CC1)C1CCCCC1	inactive: > 76.9 µM

SMILES	Potency
CCOc1ccc(NC(=O)CCN2CCCCC2)cc1	inactive: > 76.9 µM
CCCCc1nc2ccccc2n1Cc1nnc2n1-c1ccccc1SC2	inactive: > 76.9 µM
C=C(C)Cn1c(C(C)NC(=O)CCC)nc2ccccc21 (stereo unspecified)	inactive: > 76.9 µM
O=C(c1cc(-c2cccs2)on1)N1CCc2ccccc2C1	inactive: > 76.9 µM
O=C(Nc1ncc2c(n1)CC(c1ccco1)CC2=O)c1ccccc1 (stereo unspecified)	inactive: > 76.9 µM
CCCNS(=O)(=O)c1cc(Br)cc2c1N(C(=O)CC)CC2	inactive: > 76.9 µM
COc1cc(C2C(C#N)=C(N)Oc3n[nH]c(-c4ccncc4)c32)cc(OC)c1OC (stereo unspecified)	inactive: > 76.9 µM
CCOC(=O)c1[nH]c(C)c(C(=O)N2CCc3ccccc32)c1C	inactive: > 76.9 µM
Nc1nc(NC(=O)CCCC(=O)O)nn1-c1ccccc1	inactive: > 76.9 µM
Cc1cc(C)n(CC(=O)NC2CCCCC2)n1	inactive: > 76.9 µM
COc1cc(OC)c(N2CC34C=CC(O3)C(C(=O)O)C4C2=O)cc1Cl (stereo unspecified)	inactive: > 76.9 µM
O=S(=O)(c1ccc(N2CCCC2c2nc3ccccc3s2)nc1)N1CCOCC1 (stereo unspecified)	inactive: > 76.9 µM
O=C1C=C(OCc2ccccc2)CN1	inactive: > 76.9 µM
Cc1cc(C)nc(N2CCN(c3ncnc4c3cnn4Cc3ccc(Cl)cc3Cl)CC2)n1	inactive: > 76.9 µM
Cc1sc(NC(=O)CSc2nnc3scc(-c4ccccc4)n23)c(C#N)c1C	inactive: > 76.9 µM
Cc1nn(-c2ccccc2)c2sc(C(=O)N3CCOCC3)cc12	inactive: > 76.9 µM
CCOC(=O)c1c(N)c(C#N)c2n1CCCCC2	inactive: > 76.9 µM
O=S(=O)(CC(CN1CCCC1)N1CCCC1)c1ccc2ccccc2c1 (stereo unspecified)	inactive: > 76.9 µM
Cc1cc(C(=O)CSc2nnc(-c3ccc(OC(F)F)cc3)o2)c(C)n1Cc1cccs1	inactive: > 76.9 µM
O=C(c1ccccc1F)N(Cc1ccccc1)C1CCS(=O)(=O)C1 (stereo unspecified)	inactive: > 76.9 µM
O=C(C1CCCC1)N(c1ccccc1)C1C=CS(=O)(=O)C1 (stereo unspecified)	inactive: > 76.9 µM
CCOc1ccc(NC(=O)CN2CCN(CC(=O)Nc3cccc(F)c3)CC2)cc1	inactive: > 76.9 µM
